Data: PubChem BioAssay AID1508624 (National Center for Advancing Translational Sciences (NCATS), 2021)
The campaign covered roughly 48,000 compounds. About 120 (0.25%) were called active. Roughly 4% stayed inconclusive and do not appear here. The call rests on the fitted dose curve; in most records, active means well fitted activation curve with a large enough effect; inconclusive means small, poorly fitted or top-dose-only effect, or another doubt; inactive means no such curve, though single readings can be large or run the other way. Some of the results follow.

Experiment: Primary qHTS for Identification of Small Molecule Activators of Huntingtin-Antisense Promoter Activity; further: nearly all actives have a fitted effect of over 55% in size
Conditions: HEK293 HTT-AS promoter firefly luciferase reporter, 24 h; series mostly up to 57.5 µM; activity change, positive = activation: at the top concentration
Method in brief: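 HEK293 luciferase promoter-reporter cells (2,500/well) plated 24 h, then compounds added at up to 57.5 uM final for 24 h at 37 °C. Firefly luminescence by Dual-Glo, normalized to vehicle (0%) and zero RLU (-100%).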

Activity change, positive = activation, inactive:
COc1ccccc1CNC(=O)c1ccc(C)c(-n2cnc3cccnc32)c1 1.88%
CCOc1ccccc1NC(=O)Cn1c(=O)n(CCC(C)C)c(=O)c2cccnc21 -12.2%
Cc1nc2ccccc2n1CCc1nc2c3ccccc3nc(SCc3cccc(F)c3)n2n1 -8.03%
Cc1cc(C)cc(OCCn2c(C3CC(=O)N(c4ccccc4Cl)C3)nc3ccccc32)c1 (stereo not given) -39.7%
CC1=C(C(=O)Nc2ccccc2)C(c2ccccc2C)n2ncc(C(=O)Nc3ccccc3)c2N1 (stereo not given) -12.2%
Cc1ccc2c(=O)c(C(=O)c3ccccc3)cn(CC(=O)Nc3ccc4c(c3)OCCO4)c2n1 -0.538%
COc1ccc(CCNC(=O)CCn2c(=O)c3ccccc3n(CC(=O)Nc3ccccc3F)c2=O)cc1OC -20.3%
Cn1c(=O)c2sccc2n2c(CCC(=O)NCc3ccc(F)cc3)nnc12 -4.4%
CCOC(=O)c1cc(S(=O)(=O)Nc2ccc(Br)c(C)c2)[nH]n1 -18.3%
COc1cc(C2c3c(oc4cc(C)c(C)cc4c3=O)C(=O)N2CCCN2CCOCC2)ccc1O (stereo not given) -3.88%
CC(O)COc1ccccc1 (stereo not given) -2.07%
Cc1ccc2c(c1)c1c(c(=O)n(-c3cccc(Cl)c3)c(=O)n1CC(=O)N1CCCC1)n2C -10.2%
Cc1c(C(=O)N2CCC(c3nc4ccccc4s3)CC2)oc2cc(Br)ccc12 16.6% [at 11.5 µM, percent change from vehicle, -100% = no light]
CCCNC(=O)c1cc2nc(-c3ccc(Br)cc3)cc(C(F)(F)F)n2n1 -8.51%
CCOc1ccc(-n2c(SCc3nc(-c4ccc(OC)cc4)no3)nnc2-c2ccncc2)cc1 -17.6%
COc1ccc(Br)cc1CNC(=O)c1cc(=O)[nH]c2ccc(S(=O)(=O)N3CCCC3)cc12 -16.4%
CCOc1cccc2cc(-c3nc4sc5c(c4c(=O)[nH]3)CCC(C(C)(C)C)C5)c(=O)oc12 (stereo not given) 1.29%
CC(C)Cc1ccc(C(C)C(=O)OCc2ccccn2)cc1 (stereo not given) -9.7%
CCc1nnc(NC(=O)c2nc(S(=O)(=O)Cc3cccc(C)c3)ncc2Cl)s1 -86.4%
Cn1c(CN2CCCCC2)nc2cc(NC(=O)c3cccc(Br)c3)ccc21 6.11%
NC(=O)CSc1oc(-c2ccco2)nc1S(=O)(=O)c1ccc(Br)cc1 7.47%
CCCCn1cc(S(=O)(=O)c2ccc(C)c(C)c2)c(=O)c2cc(F)c(N3CCN(C)CC3)cc21 -4.25%
O=C(CN1C(=O)CCSc2ccc(S(=O)(=O)N3CCCC3)cc21)Nc1ccccc1 -5.07%
CCC(C(=O)Nc1ccccc1C(=O)OC)n1c(C)c2cnn(-c3ccccc3)c(=O)c2c1C (stereo not given) -21.7%
CCC(Oc1ccccc1)C(=O)Nc1ccc(O)c(-c2nc3cc(C)ccc3o2)c1 (stereo not given) 0.328%
COc1cccc(NC(=O)CCS(=O)(=O)c2ccc3c(c2)oc(=O)n3C)c1 -2.24%
COc1ccc(NC(=O)Cn2c(=O)n(CCCC(=O)NCc3ccccc3OC)c(=O)c3ccccc32)cc1Cl -30.2%
Cn1c(NCCCCO)nc2c1c(=O)n(Cc1ccc(Cl)cc1)c(=O)n2C 20.1%
O=C(Cn1cc(S(=O)(=O)Cc2ccccc2Cl)c2ccccc21)NCc1ccccc1Cl -34.9%
O=C1c2oc3ccccc3c(=O)c2C(c2ccc(Br)cc2)N1c1ccccn1 (stereo not given) -13.2%
COc1ccc(Cn2c(C(=O)O)c(CNCc3cccc(OC)c3)c3ccc(C)cc32)cc1 -54.6%
CCCCN(CC)CCNC(=O)Cn1cnc2sc(C)c(S(=O)(=O)N3CCC(C)CC3)c2c1=O 9.08%
CCOc1ccc(NC(=O)CC2C(=O)N(c3ccccc3)C(=O)N2CCc2ccc(OC)cc2)cc1 (stereo not given) 3.57%
Cn1c(=O)oc2cc(S(=O)(=O)N3CCC(C(=O)NCc4ccccc4Cl)CC3)ccc21 -15.8%
Cc1ccc(NC(=O)Cn2nc(C)c3nn(-c4ccc(Cl)cc4)c(C)c3c2=O)cc1C -28.3%
O=C1CN(C(=O)Cc2ccc(F)cc2)C(c2ccccc2)c2cc(Br)ccc2N1 (stereo not given) -21.2%
CC(=O)c1ccc(N2CCN(S(=O)(=O)c3c(C)nc4sc(C)cn4c3=O)CC2)cc1 -34%
Cc1cccc(OCc2cc(=O)n3c(-c4ccccc4)csc3n2)c1C 14.4%
CCCn1c(SCc2nc(-c3ccccc3C)no2)nnc1-c1ccc(Cl)cc1 -21.3%
CCOC(=O)c1[nH]c(C)c(CCC(=O)Nc2c(C)cc(C)cc2C)c1C -33.6%
Cc1cccc(N2CCN(C(=O)C3CCC(CNS(=O)(=O)c4ccc(Br)s4)CC3)CC2)c1C (stereo not given) -22.6%
CCc1nn(CC(=O)N2CCN(c3cccc(C)c3C)CC2)c(=O)c2cc3occc3n12 -22%
COc1ccc(N2C(=O)CSC23C(=O)N(CC(=O)NC2CCCCC2)c2ccccc23)cc1 (stereo not given) -7.82%
CC(C(=O)O)c1cccc(C(=O)c2ccccc2)c1 (stereo not given)
CCOc1ccc(S(=O)(=O)N2CCN(c3cc(Cl)ccc3Cl)CC2)c2ccccc12 -10.5%
O=c1[nH]c2ccc(NCc3ccc(-c4cccc(Cl)c4)o3)cc2[nH]1 -29.5%
CCc1ccccc1NC(=O)C(CC)Sc1ncnc2c1sc1ccccc12 (stereo not given) -5.69%
Cc1ccc(NC(=O)CN2C(=O)C(c3ccc(F)cc3)=NC23CCCCC3)c(C)c1 -23.6%
Cn1c(=O)c2c(SCC(=O)N3CCc4ccccc43)nc(-c3cccc(F)c3)nc2n(C)c1=O -1.31%
CCOc1ccccc1CNC(=O)C1CCN(S(=O)(=O)c2cccc3nonc23)CC1 -9.23%
CCN(c1ccccc1)S(=O)(=O)c1cc(-c2onc(C)c2C)ccc1OC -29.2%
Cc1ccc(C)c(Cn2c(C(C)NC(=O)c3ccc(F)cc3)nc3ccccc32)c1 (stereo not given) -8.47%
CCOc1ccccc1NC(=O)CCS(=O)(=O)c1cccc2nsnc12 -9.6%
CCn1c(=O)c2sccc2n2c(CCCC(=O)N3CCN(c4ccc(OC)cc4)CC3)nnc12 4.61%
COc1cccc(N2C(=O)C(CC(=O)Nc3ccc(Cl)cc3)N(Cc3ccc4c(c3)OCO4)C2=O)c1 (stereo not given) 0%
CCc1cccc(NC(=O)c2nnn(Cc3ccc(SC)cc3)c2N)c1 -7.78%
CCOCCCNC(=O)C(c1ccccc1)N(Cc1cccs1)C(=O)c1ccc(NC(C)=O)cc1 (stereo not given) -6.06%
COc1ccc(N2CCN(C(=O)c3c(C)oc4ncnc(N5CCCCC5)c34)CC2)cc1 -27.1%
Cc1cccc(N2CCN(C(=O)C3CCCN(S(=O)(=O)c4cccc5nsnc45)C3)CC2)c1C (stereo not given) -9.8%
O=C(O)Cc1ccc(OCCNC[C@H](O)c2ccccc2)cc1 -8.57%
Cc1cccc(-c2noc(CCCC(=O)NCc3ccco3)n2)c1 -16.8%
COCCn1c(CCC(=O)Nc2cc(C)ccc2C)nc2cccnc21 0.968%
CC(=O)Nc1ccc(/C=N/NC(N)=S)cc1 3.86%
COc1cccc(CNC(=O)c2cc3cccc4c3n2CC(C)S4)c1OC (stereo not given) -34.6%
COc1cc2c(=O)c(S(=O)(=O)c3ccc(F)cc3)cn(Cc3ccccc3C)c2cc1OC -32.2%
Cc1ccc(-c2noc(-c3ccc(N4CCC(C)CC4)c([N+](=O)[O-])c3)n2)cc1 -1.18%
Cc1ccc(-n2cc(-c3ccccc3)c3c(NC4CCCC4)ncnc32)cc1 -9.27%
Cc1cccc(N(C)C(=O)CN2C(=O)COc3ccc(S(=O)(=O)N4CCCCCC4)cc32)c1 -23.6%
Cn1c(CNC(=O)CSc2n[nH]c(-c3ccccc3Cl)n2)nc2ccccc21 0.637%
COc1cc(OC)c(OC)cc1CNCCSc1nnnn1-c1ccccc1 -11%
CCN(Cc1ccccc1)C(=O)C1CCN(c2ncnc3c2nc2n3CCCCC2)CC1 -20.3%
O=C(Nc1ccc(Cl)cc1F)c1oc(=O)c2ccccc2c1-c1ccccc1 -22.6%
O=C(Cc1ccccc1)N(Cc1cccnc1)c1nc2c(F)cccc2s1 -27.7%
O=C(NCc1ccc(Cl)cc1)c1ccc(CSCc2cccc(Cl)c2)o1 -22.8%
Cc1ccccc1OC(=O)c1snnc1C -5.39%
CCOc1cccc2cc(-c3cn4c(n3)sc3cc(C)ccc34)c(=O)oc12 -0.867%
Cc1ccnc(NS(=O)(=O)c2ccc(NC(=O)C(C)(C)Oc3ccc(Cl)cc3)cc2)n1 4.59% [at 11.5 µM, percent change from vehicle, -100% = no light]
COc1ccc(OCc2nc3ccccc3n2C(C)c2ccccc2)cc1 (stereo not given) -21.6%
CCOc1ccccc1NC(=O)CSc1nc2c(c(=O)[nH]1)CCC2 -19.9%
Nc1nc(Nc2cccc(C(F)(F)F)c2)sc1C(=O)c1ccccc1 1.08%
Cc1cc(C)c2c(CC(=O)Nc3ccc(S(=O)(=O)N4CCCC(C)C4)cc3)coc2c1 (stereo not given) -22.6%
OCCn1cc(-c2ccc3c(c2)CCC3=NO)c(-c2ccncc2)n1 -34.4%
CCOc1cc(C2Nc3ccccc3-c3nnc(SCc4ccccc4)nc3O2)ccc1OC (stereo not given) 0.608%
Cc1cc(Br)ccc1NC(=O)C(Cc1ccccc1)NS(=O)(=O)c1ccc(Br)s1 (stereo not given) -26.9%
CCC(C(=O)Nc1ccc(C(=O)OC)cc1)n1nc(-c2ccc(C)cc2)c2c(c1=O)CCCC2 (stereo not given) -38%
COc1ccccc1CN1CCNC(=O)C1=O 3.1%
COc1ccc(N(Cc2nnc3n2CCCCC3)C(=O)Nc2cccc(C)c2)cc1Cl -9.02%
CCn1c(=N)n(CC(O)COc2ccccc2)c2ccccc21 (stereo not given) -9.79%
Cn1c(=O)c2cc(C(=O)NC3CCCCCC3)sc2c2ccccc21 -51.5%
O=C(Cn1ncc2c3ccccc3n(Cc3ccccc3)c2c1=O)NC1CCCCCC1 -9.2%
COc1ccccc1NC(=O)Cn1c(=O)n(-c2cccc(C)c2)c(=O)c2c1c1cc(C)ccc1n2C -7.5%
COc1ccc(NC(=O)C(CC(C)C)NC(=O)C2CCCCC2)cc1 (stereo not given) -11.1%
COc1ccc(-c2cnc(C)o2)cc1S(=O)(=O)Nc1ccc(F)cc1F -7.52%
COc1cc(OC)c(NC(=O)c2cn(C3CCCC3)c(=O)c3c2c2ccccc2n3C)cc1Cl -6.56%
COc1cc2c(cc1OC)C(COc1ccc(F)cc1)N(C(=O)c1cccc(F)c1)CC2 (stereo not given) -25.8%
